# In the antibiotic and cytotoxicity screens of Wong et al. (2023):
# This is one part of the list.
# System: HepG2
# Experiment: cytotoxicity call (relative viability < 0.9)
# Conditions: 10 µM
row,SMILES,cytotoxicity call
1,COc1ccc(S(=O)(=O)N2C[C@@H](O)COC[C@@H]3O[C@@H](CC(=O)NCc4ccc(Cl)c(Cl)c4)CC[C@H]32)cc1,active
2,Cc1noc(C)c1NC(=O)Nc1cccc2c1O[C@H](CN(C)Cc1ccc(C(F)(F)F)cc1)[C@@H](C)CN([C@@H](C)CO)C2=O,inactive
3,C[C@H]1CCCCO[C@H](CN(C)C(=O)Nc2ccc(F)cc2)[C@@H](C)CN([C@@H](C)CO)C(=O)c2cc(NC(=O)Nc3ccc(C(F)(F)F)cc3)ccc2O1,inactive
4,CC(C)(C)S(=O)N1Cc2cc(C(=O)N3CCN(Cc4ccccc4)CC3)nc(-c3cccc(C#CCC4CCCC4)c3)c2[C@H]1CCO (stereo not given in full),active
5,C[C@@H]1CN([C@@H](C)CO)C(=O)Cc2cc(NC(=O)Nc3cccc4ccccc34)ccc2O[C@@H]1CN(C)Cc1ccc(C(F)(F)F)cc1,active
6,COc1ccc([C@@H]([C@H](Cc2ccccc2)OC(C)=O)N2C[C@@H](CC(=O)N(C)C)[C@@H]3[C@H]([C@@H]2Cc2ccccc2)N(C)O[C@H]3c2ccccc2)cc1,inactive
7,C=CC(=O)N[C@@H]1c2ccccc2C[C@@H]1O,inactive
8,COc1ccccc1S(=O)(=O)N[C@@H]1C=C[C@@H](CC(=O)N2CCN(C)CC2)O[C@@H]1CO,inactive
9,C[C@H]1CCCCO[C@@H](CN(C)C(=O)c2ccccc2)[C@@H](C)CN([C@@H](C)CO)C(=O)c2cc(NC(=O)NC3CCCCC3)ccc2O1,inactive
10,COc1ccc(NC(=O)Nc2ccc3c(c2)C(=O)N([C@H](C)CO)C[C@H](C)[C@H](CN(C)Cc2ccc(C(F)(F)F)cc2)O3)cc1,inactive

# System: S. aureus RN4220
# Experiment: growth inhibition call (relative growth <= 0.2)
# Conditions: 50 µM
row,SMILES,growth inhibition call
1,C[C@H](CO)N1C[C@H](C)[C@@H](CN(C)Cc2ccc(Cl)c(Cl)c2)OCCCC[C@H](C)Oc2ccc(NS(C)(=O)=O)cc2C1=O,inactive
2,C[C@@H]1CN([C@@H](C)CO)C(=O)c2cc(NC(=O)Nc3ccc4c(c3)OCO4)ccc2O[C@@H](C)CCCCO[C@@H]1CN(C)C(=O)c1ccccc1,inactive
3,C[C@H]1C[C@@H]2[C@@H](C[C@@H]1C)N[C@@H]1C(=O)NC(=O)N[C@H]1N2C[C@H](O)[C@H](O)[C@H](O)CO,inactive
4,C[C@H](CO)N1C[C@H](C)[C@@H](CN(C)C(=O)Nc2ccccc2)OCc2ccccc2-c2c(n(C)c3ccccc23)C1=O,inactive
5,C[C@H](CO)N1C[C@H](C)[C@H](CN(C)S(C)(=O)=O)Oc2ccc(NC(=O)Cn3cnnn3)cc2C1=O,inactive
6,COc1ccc(S(=O)(=O)N(C)C[C@H]2Oc3ccc(NC(=O)NC(C)C)cc3CC(=O)N([C@H](C)CO)C[C@H]2C)cc1,inactive
7,C[C@@H]1CN([C@H](C)CO)C(=O)c2cc(C#CC3CCCCC3)cnc2O[C@@H]1CN(C)C(=O)Cc1ccccn1,inactive
8,C[C@@H]1CN([C@H](C)CO)C(=O)c2cccc(NC(=O)NC3CCCCC3)c2O[C@H]1CN(C)Cc1ccc(Oc2ccccc2)cc1,inactive
9,COc1ccc(NC(=O)Nc2ccc3c(c2)C(=O)N([C@H](C)CO)C[C@@H](C)[C@@H](CN(C)C(=O)Cc2ccccc2)OCCCC[C@H](C)O3)cc1,inactive
10,C[C@@H]1CN([C@@H](C)CO)C(=O)c2cccc(NC(=O)Nc3ccc(C(F)(F)F)cc3)c2O[C@@H]1CN(C)Cc1ccc2c(c1)OCO2,inactive
11,Cc1noc(C)c1S(=O)(=O)Nc1ccc2c(c1)CC(=O)N([C@@H](C)CO)C[C@@H](C)[C@@H](CN(C)S(C)(=O)=O)O2,inactive
12,CC[C@@H](CN)Cc1ccccc1,inactive
13,O=C(C[C@H]1CC[C@@H]2[C@H](COC[C@@H](O)CN2S(=O)(=O)c2ccccc2)O1)NCc1ccc2c(c1)OCO2,inactive
14,Cc1noc(C)c1NC(=O)Nc1ccc2c(c1)C(=O)N([C@@H](C)CO)C[C@@H](C)[C@H](CN(C)C(=O)Nc1cccc3ccccc13)O2,inactive
15,C[C@H]1CN([C@@H](C)CO)C(=O)c2cccc(NC(=O)CCCCCC(=O)Nc3ccccc3N)c2O[C@H]1CN(C)S(C)(=O)=O,inactive
16,C[C@@H]1CN([C@H](C)CO)S(=O)(=O)c2ccc(-c3ccc(C(=O)N(C)C)cc3)cc2O[C@H]1CN(C)C(=O)C1CCC1,inactive
17,Cc1ccc(S(=O)(=O)Nc2cccc3c2O[C@@H](CN(C)CC2CC2)[C@H](C)CN([C@@H](C)CO)C3=O)cc1,inactive
18,CN(C)CCCNC(=O)C[C@@H]1CC[C@@H]2[C@@H](COc3ccc(NS(C)(=O)=O)cc3C(=O)N2C)O1,inactive
19,C[C@@H]1CN([C@H](C)CO)C(=O)c2cc(NS(C)(=O)=O)ccc2O[C@@H](C)CCCCO[C@@H]1CN(C)S(=O)(=O)c1ccc(F)cc1,inactive
20,O=C(O)c1cc(O)c2c(c1)C(C1c3cc(C(=O)O)cc(O)c3C(=O)c3c(OC4OC(CO)C(O)C(O)C4O)cccc31)c1cccc(OC3OC(CO)C(O)C(O)C3O)c1C2=O (stereo not given),inactive

row,SMILES,growth inhibition call
1,[Cl][Ca][Cl],inactive
2,COc1ccc(S(=O)(=O)Nc2ccc3c(c2)C(=O)N([C@@H](C)CO)C[C@@H](C)[C@H](CN(C)Cc2ccc(C(F)(F)F)cc2)OCCCC[C@@H](C)O3)cc1,inactive
3,C[C@@H]1CCCCO[C@H](CN(C)Cc2ccncc2)[C@@H](C)CN([C@H](C)CO)C(=O)c2cc(NC(=O)Nc3ccc(F)cc3)ccc2O1,inactive
4,COCC(=O)N1C[C@@H](C(=O)N2CCCO2)C[C@@H]2OCC[C@@H]21,inactive
5,C[C@H](CO)N1C[C@H](C)[C@H](CN(C)S(=O)(=O)c2ccc(F)cc2)OCCCC[C@H](C)Oc2ccc(NC(=O)Nc3cccc4ccccc34)cc2C1=O,inactive
6,C[C@H]1CN([C@@H](C)CO)C(=O)CCCn2cc(nn2)CO[C@H]1CN(C)C(=O)Nc1ccc2c(c1)OCO2,inactive
7,O=C(O)[C@@H]1C[C@@H](O)CN1,inactive
8,N[C@@H](CO)c1cccc(Br)c1,inactive
9,C[C@@H]1CCCCO[C@@H](CN(C)C(=O)Nc2ccc3c(c2)OCO3)[C@@H](C)CN([C@@H](C)CO)C(=O)c2cc(NC(=O)C3CCCCC3)ccc2O1,inactive
10,Cc1noc(C)c1NC(=O)Nc1ccc2c(c1)C(=O)N([C@H](C)CO)C[C@H](C)[C@@H](CN(C)S(=O)(=O)c1cccs1)OCCCC[C@@H](C)O2,inactive
11,COc1ccc(S(=O)(=O)N2C[C@@H](O)COC[C@@H]3O[C@@H](CC(=O)NCc4ccc(Cl)c(Cl)c4)CC[C@H]32)cc1,inactive
12,Cc1noc(C)c1NC(=O)Nc1cccc2c1O[C@H](CN(C)Cc1ccc(C(F)(F)F)cc1)[C@@H](C)CN([C@@H](C)CO)C2=O,inactive
13,C[C@H]1CCCCO[C@H](CN(C)C(=O)Nc2ccc(F)cc2)[C@@H](C)CN([C@@H](C)CO)C(=O)c2cc(NC(=O)Nc3ccc(C(F)(F)F)cc3)ccc2O1,inactive
14,CC(C)(C)S(=O)N1Cc2cc(C(=O)N3CCN(Cc4ccccc4)CC3)nc(-c3cccc(C#CCC4CCCC4)c3)c2[C@H]1CCO (stereo not given in full),inactive
15,C[C@@H]1CN([C@@H](C)CO)C(=O)Cc2cc(NC(=O)Nc3cccc4ccccc34)ccc2O[C@@H]1CN(C)Cc1ccc(C(F)(F)F)cc1,inactive
16,COc1ccc([C@@H]([C@H](Cc2ccccc2)OC(C)=O)N2C[C@@H](CC(=O)N(C)C)[C@@H]3[C@H]([C@@H]2Cc2ccccc2)N(C)O[C@H]3c2ccccc2)cc1,inactive
17,C=CC(=O)N[C@@H]1c2ccccc2C[C@@H]1O,inactive
18,COc1ccccc1S(=O)(=O)N[C@@H]1C=C[C@@H](CC(=O)N2CCN(C)CC2)O[C@@H]1CO,inactive
19,C[C@H]1CCCCO[C@@H](CN(C)C(=O)c2ccccc2)[C@@H](C)CN([C@@H](C)CO)C(=O)c2cc(NC(=O)NC3CCCCC3)ccc2O1,inactive
20,COc1ccc(NC(=O)Nc2ccc3c(c2)C(=O)N([C@H](C)CO)C[C@H](C)[C@H](CN(C)Cc2ccc(C(F)(F)F)cc2)O3)cc1,inactive
